From article PMC4336329 (PLoS ONE, 2015)
Hit rate of the full screen: of about 310,000 compounds, about 14,000 (4.5%) showed an effect of 50% or more. Effects have a minus sign here. The list shows a part of the results.

Molecular target: human ether-à-go-go-related gene (hERG) potassium channel (human, UniProt Q12809)
Assay: primary screen, population patch clamp on CHO cells stably expressing hERG
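Further: peak tail current of the secondary pulse compared with the same well before compound.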

human ether-à-go-go-related gene (hERG) potassium channel, sequence (Q12809 whole entry, looked up): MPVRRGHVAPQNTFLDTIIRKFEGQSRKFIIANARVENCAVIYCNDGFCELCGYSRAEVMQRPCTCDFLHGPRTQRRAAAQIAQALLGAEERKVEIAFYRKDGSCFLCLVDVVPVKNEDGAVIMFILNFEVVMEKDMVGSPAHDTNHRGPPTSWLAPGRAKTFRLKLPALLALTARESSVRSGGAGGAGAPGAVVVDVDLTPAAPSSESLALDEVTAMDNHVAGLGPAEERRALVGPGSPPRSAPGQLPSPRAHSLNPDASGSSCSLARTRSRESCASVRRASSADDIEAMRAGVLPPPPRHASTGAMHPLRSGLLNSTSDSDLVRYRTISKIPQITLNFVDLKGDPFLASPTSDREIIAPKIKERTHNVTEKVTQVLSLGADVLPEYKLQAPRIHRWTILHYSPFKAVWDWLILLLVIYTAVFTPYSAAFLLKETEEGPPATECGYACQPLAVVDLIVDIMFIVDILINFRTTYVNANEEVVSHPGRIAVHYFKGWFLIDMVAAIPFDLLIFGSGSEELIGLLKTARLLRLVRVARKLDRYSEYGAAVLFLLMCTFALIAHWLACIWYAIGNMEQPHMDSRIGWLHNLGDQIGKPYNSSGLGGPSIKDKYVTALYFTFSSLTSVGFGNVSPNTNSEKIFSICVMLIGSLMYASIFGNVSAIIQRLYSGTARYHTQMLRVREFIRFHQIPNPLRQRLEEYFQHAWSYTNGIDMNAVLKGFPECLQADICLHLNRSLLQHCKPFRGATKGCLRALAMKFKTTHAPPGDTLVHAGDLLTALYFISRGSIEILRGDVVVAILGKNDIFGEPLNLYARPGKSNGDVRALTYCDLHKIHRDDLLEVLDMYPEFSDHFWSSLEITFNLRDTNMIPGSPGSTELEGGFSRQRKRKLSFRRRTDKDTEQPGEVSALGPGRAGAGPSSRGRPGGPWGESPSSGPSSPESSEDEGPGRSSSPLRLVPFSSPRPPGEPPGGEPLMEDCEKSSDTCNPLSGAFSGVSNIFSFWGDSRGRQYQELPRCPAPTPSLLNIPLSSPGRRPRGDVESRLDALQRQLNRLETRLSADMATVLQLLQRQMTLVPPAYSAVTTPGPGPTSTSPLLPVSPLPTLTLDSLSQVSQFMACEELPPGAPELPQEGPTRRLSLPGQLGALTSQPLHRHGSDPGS

Row | Compound | hERG current change (%, negative = inhibition) at 10uM
1 | CCOC(=O)c1sc(=S)n(-c2ccc(Cl)cc2)c1SC | -10.3%
2 | CN(c1ccc(F)cc1)S(=O)(=O)c1ccc(Cl)c(C(=O)OCC(=O)NCc2ccco2)c1 | -21.3%
3 | O=C(Nc1nc(-c2ccc3ccccc3c2)cs1)C1CCN(S(=O)(=O)c2cccs2)CC1 | 13.7%
4 | CCOc1ccccc1-n1c(SCC(=O)NC)nnc1-c1ccco1 | -2.06%
5 | O=C(Oc1cccc(/C=N/Nc2nc(N3CCOCC3)nc(N3CCOCC3)n2)c1)c1ccco1 | 5.48%
6 | CNC(=O)c1cc2ccc(OC)cc2oc1=O | -3.97%
7 | Cc1cccc(C)c1NC(=S)N/N=C/c1c(Cl)cccc1Cl | 7.04%
8 | O=C(O)/C=C\C(=O)Nc1cccc(C(=O)Nc2cccc(O)c2)c1 | 19.5%
9 | CCOc1ccc(OCC)c(NC(=O)CSc2nnc(Cn3cnc4ccccc43)n2C)c1 | -47.9%
10 | CCOCCCNc1nc2c(-c3ccccc3)nnn2c2ccccc12 | 20%
11 | CC(C)NC(=O)CN1C(=O)C(C)(C)Oc2ccc(C(=O)NC3CCCCC3)cc21 | 12.9%
12 | CCOC(=O)C1(Cc2cccc(OC)c2)CCN(Cc2cccc(O)c2)CC1 | -54.7%
13 | Cc1ccc(CN2C(=O)CCC2C(=O)NCc2ccc(F)cc2)cc1 (stereo not drawn) | -26.4%
14 | C/C(O)=c1/cnc2nc3ccccc3n2c1=O | 14.7%
15 | Cc1ccnc2nc(C(=O)NC3CCCc4ccccc43)nn12 (stereo not drawn) | 22.6%
16 | Cc1cccc(-n2ncc3c2CCCC3NC(=O)Cn2cccn2)c1C (stereo not drawn) | 5.82%
17 | O=C(COC(=O)/C=C/c1cccc(Br)c1)Nc1cccc(S(=O)(=O)NC2=NCCC2)c1 | -2.76%
18 | Cc1noc(C)c1CSc1ncnc2sc(C)c(C)c12 | 7.44%
19 | Cc1cc(C)c(S(=O)(=O)Nc2nnc(CC(C)C)s2)c(C)c1 | -2.24%
20 | O=C(Cn1cnc2c(cnn2-c2ccccc2Cl)c1=O)N1CCc2ccccc21 | -0.441%
21 | O=c1c2ccccc2nnn1CSc1nc2cc(Cl)ccc2c(=O)n1Cc1ccco1 | -4.29%
22 | COc1ccc([N+](=O)[O-])cc1NC(=O)C(C)OC(=O)C1CC(=O)N(Cc2ccco2)C1 (stereo not drawn) | -57.4%

Row | Compound | hERG current change (%, negative = inhibition) at 10uM
23 | CC1CCCCN1C(=O)c1cc(-c2ccc(Cl)c(Cl)c2)on1 (stereo not drawn) | -14.1%
24 | Cc1nc(-c2nnc(SCC(=O)Nc3cc(C(F)(F)F)cc(C(F)(F)F)c3)n2C)cs1 | 16%
25 | CC1CC(C)CN(C(=O)CSc2nc3ccsc3c(=O)n2Cc2ccccn2)C1 (stereo not drawn) | -19.2%
26 | CCOc1ccc(S(=O)(=O)NC(C)C(=O)NCc2ccccn2)cc1 (stereo not drawn) | 18.8%
27 | C=CCn1c(SCc2ccc(Br)cc2F)nc2cc(C(=O)O)ccc2c1=O | 78.1%
28 | Cc1ccc(SCCN2CCC(O)CCC2=O)cc1 (stereo not drawn) | 5.87%
29 | CCOC(=O)C1CCCN(C(=O)c2ccc(Cl)c(S(=O)(=O)N3CCCCC3)c2)C1 (stereo not drawn) | -13.8%
30 | O=C(O)CCN(CC(=O)c1ccc(Cl)cc1)S(=O)(=O)c1ccc([N+](=O)[O-])cc1 | -13.7%
31 | O=C(CN(Cc1ccco1)C(=O)CNS(=O)(=O)c1ccc(F)cc1)NCc1ccco1 | -8.87%
32 | Cc1ccc(C)c(Cn2nnc3c(=O)[nH]c(C(=O)Nc4ccc(F)cc4)nc32)c1 | 28.5%
33 | O=c1cc(C(F)(F)F)[nH]c2ccccc12 | 10.9%
34 | Cc1ccc(S(=O)(=O)NC(=O)Nc2cc(C)no2)cc1 | -1.51%
35 | COc1cc(OC)cc(-c2nc3nc(C)c(CCC(=O)NCC(OC)OC)c(C)n3n2)c1 | -16.8%
36 | CCC(=O)Oc1ccc(C(=O)Nc2cccc(C(=O)NCC(C)C)c2)cc1 | -14.5%
37 | Cc1cc(=O)[nH]c2ccc(S(=O)(=O)NC3CCCCC3)cc12 | 3.64%
38 | CN(C(=O)CSc1nnc(-c2ccccc2F)n1N)C1CCCCC1 | -5.06%
39 | CCOc1cc(NC(=S)NCC(C)C)c(OCC)cc1NC(=O)c1cccs1 | 13.2%
40 | Cc1ccc(NS(=O)(=O)c2c(C)[nH]c(=O)[nH]c2=O)c(Br)c1 | 13.7%
41 | C[C@@H](C(=O)Nc1ccc2ccccc2c1)[C@H]1C[C@]1(C)[C@H](NC(=O)OCc1ccccc1)c1ccccc1 | 3.4%
42 | CC1(C)CC(=O)C=C(NCCN2CCN(C(=S)Nc3ccccc3)CC2)C1 | -10.2%
43 | COC(=O)c1ccccc1SC1CC(=O)N(c2cccc(C)c2)C1=O (stereo not drawn) | 23.6%
44 | Cc1nn2c(N3CCCC3)cc(C(C)C)nc2c1-c1ccccc1 | 3.92%

Row | Compound | hERG current change (%, negative = inhibition) at 10uM
45 | COc1ccc(S(=O)(=O)Nc2ccc3c(c2)CCC3)cc1 | 16.9%
46 | Cc1cnc(NC(=O)C2CC=CCC2)s1 (stereo not drawn) | 25.6%
47 | CCOC(=O)/C(C(C)=O)=C1/OC(=O)c2ccccc21 | 4.32%
48 | Cc1c(CCC(=O)N[C@@H](C)C(=O)O)c(=O)oc2c(C)c3oc4c(c3cc12)CCCC4 | -2.64%
49 | Cc1ccc(C(=O)NCC(=O)OCc2nnc(-c3ccccc3)o2)cc1 | -31.6%
50 | C=CCNC(=O)c1c(CSc2ccc(F)cc2)noc1C(=O)NCCC | 3.36%
51 | COCCNC(=O)C(OC(=O)c1cccs1)c1ccc(F)cc1 (stereo not drawn) | -49.9%
52 | COc1ccc(S(=O)(=O)/N=C2/C=CC(=O)C(C)=C2C)cc1 | -16.8%
53 | O=C(NCc1ccccc1)C1=C[C@H](c2coc3ccccc3c2=O)C[C@H](OCc2ccc(CO)cc2)O1 | -38.1%
54 | Cc1cc(=O)[nH]c(SCC(=O)Nc2ccc3c(c2)CCC3)c1C#N | -6.4%
55 | Cc1ccc(NC(=S)N/C(=N/S(=O)(=O)c2ccccc2)c2ccccc2)cc1 | 10.8%
56 | Cc1cc(C(=O)Nc2ccc([N+](=O)[O-])cn2)cs1 | 1.69%
57 | O=C(/C=C/c1cccs1)N1CCC2(CC1)Oc1ccc(F)cc1C(=O)C21CC(c2ccccc2)=NO1 (stereo not drawn) | -5.15%
58 | CN(C(=O)c1nn(C)c2c1CS(=O)(=O)c1ccccc1-2)c1cccc(Cl)c1 | -2.41%
59 | CCCc1nc2c(=O)[nH]c3ccccc3c2o1 | 0.612%
60 | COc1cc(C(=O)NC2(C(F)(F)F)NC(=O)N(CCCc3ccccc3)C2=O)cc(OC)c1OC (stereo not drawn) | -23.8%
61 | CC(C(=O)c1c[nH]c(C(=O)N=CN(C)C)c1)c1ncc(C(F)(F)F)cc1Cl (stereo not drawn) | 8.52%
62 | O=C(/C=C\Nc1cccc(F)c1)c1cccs1 | 11.7%
63 | CCCOc1ccc(C(CC(=O)O)NC(=O)C(c2ccccc2)c2ccccc2)cc1 (stereo not drawn) | 9.67%
64 | Cc1noc(C)c1S(=O)(=O)N1CCC(C(=O)Nc2ccccn2)CC1 | -14.5%
65 | CC(C)(C)c1ccc(O)c(N)c1 | 8.01%
66 | O=P(C(=Nc1ccc(Cl)cc1)N1CCOCC1)(N1CCOCC1)N1CCOCC1 | -17.6%

Row | Compound | hERG current change (%, negative = inhibition) at 10uM
67 | CC(=O)Nc1ccc(NC(=O)CSCc2ccccc2Cl)cc1 | 10.4%
68 | CC(C)N1CCN(c2ccncc2S(=O)(=O)N2CCOCC2)CC1 | 20.7%
69 | CC(C)CC(NS(=O)(=O)c1ccc2c(c1)oc(=O)n2C)C(=O)NC1CCCc2ccccc21 (stereo not drawn) | 7.33%
70 | OCCN(Cc1ccccc1)Cc1ccccc1F | -24.3%
71 | O=C(Cc1cccs1)N1CCN=C1SCc1cccc(F)c1 | -13.1%
72 | O=Cc1cn[nH]c1-c1cccc([N+](=O)[O-])c1 | 5.68%
73 | COCCNC(=O)/C(C#N)=C/c1c(N2CC(C)OC(C)C2)nc2ccccn2c1=O (stereo not drawn) | -0.67%
74 | NS(=O)(=O)c1ccc(NC(=O)COC(=O)c2cc([N+](=O)[O-])ccc2Cl)cc1 | 11.7%
75 | CCc1ccc(OCc2ccc(C(=O)NCc3ccccn3)o2)cc1 | -29%
76 | CCOc1cc(/C=C2\SC(=S)N(NC(=O)c3cccnc3)C2=O)ccc1O | 17.1%
77 | CCC1SC2=NC(C)=C(C(=O)OC)C(c3cccs3)N2C1=O (stereo not drawn) | -5.95%
78 | O=C(CN1C(=O)CSc2ncccc21)NCCN1CCOCC1 | -12.3%
79 | Cc1ccc(C(=O)N(CC(=O)Nc2ccc(Cl)c(Cl)c2)Cc2ccco2)cc1 | 11.8%
80 | O=C(COc1ccc([N+](=O)[O-])cc1)N1CCc2ccccc2C1 | -54.5%
81 | CC(=O)Nc1ccc(N2CCOCC2)c(Cl)c1 | 5.06%
82 | CN(c1ccccc1)S(=O)(=O)c1cccc(NS(=O)(=O)c2cccc(C(=O)O)c2)c1 | -3.52%
83 | COc1ccccc1NC(=S)Nc1cccc2cnccc12 | -2.14%
84 | Cn1ncc([N+](=O)[O-])c1C(=O)Nc1nccs1 | 12.2%
85 | COc1ccc(NC(=S)N2CCC(Cc3ccccc3)CC2)cc1 | -12.7%
86 | CC1CCCN(S(=O)(=O)Cc2ccc(Cl)cc2)C1 (stereo not drawn) | -5.5%
87 | O=C(NCc1n[nH]c(=S)n1-c1ccc(Cl)c(Cl)c1)c1ccc(S(=O)(=O)N2CCCCC2)cc1 | 16.7%
